Source: publication PMC9477731 (Nature Immunology, 2022)

Experiments:
soluble monomeric CD80 = molecular target: T1, soluble monomeric CD80 (UniProt P33681 35-242); assay: SPR; Biacore T200, Sensor Chip Protein A, CTLA-4–Arg70Gln-Fc immobilised (~2,500 RU), soluble monomeric ligand injected (CD80: eight twofold dilutions from 208.5 µM, 20 μl/min, 60 s); 10 mM Hepes, 150 mM NaCl, 0.05% sodium azide, pH 7.4, 25 °C; 1:1 binding model; settings: both partners purified
T1 construct: soluble monomeric CD80 used as SPR analyte; Construct, tags and host are not described; also called Soluble CD80
T1 sequence (looked up): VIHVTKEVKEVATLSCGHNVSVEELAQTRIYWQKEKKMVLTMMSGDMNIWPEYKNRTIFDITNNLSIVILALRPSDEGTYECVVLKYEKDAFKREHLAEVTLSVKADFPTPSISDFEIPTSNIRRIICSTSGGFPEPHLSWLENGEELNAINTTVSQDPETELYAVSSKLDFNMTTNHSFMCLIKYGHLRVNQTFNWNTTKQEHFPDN

soluble monomeric CD86 = molecular target: T2, soluble monomeric CD86 (UniProt P42081 24-247); assay: as above; settings: both partners purified
T2 construct: soluble monomeric CD86 used as SPR analyte; Construct, tags and host are not described
T2 sequence (looked up): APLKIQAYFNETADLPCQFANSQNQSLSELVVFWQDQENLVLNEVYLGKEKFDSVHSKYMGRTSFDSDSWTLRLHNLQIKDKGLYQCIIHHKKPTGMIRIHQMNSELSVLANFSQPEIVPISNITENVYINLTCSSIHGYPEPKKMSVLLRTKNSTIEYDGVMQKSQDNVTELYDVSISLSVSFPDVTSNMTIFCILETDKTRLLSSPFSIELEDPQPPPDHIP

Kd (soluble monomeric CD80): ~5 µM
Kd (soluble monomeric CD86): ~20 µM
B1: CTLA-4–Arg70Gln-Fc (Fc fusion)
chain: not shown
notes: soluble CTLA-4 with the patient mutation Arg70Gln; Held on a Protein A sensor chip by its Fc in SPR; detected with anti-Ig or anti-human-Fc on cells; also called Arg70Gln–Ig; R70Q-Ig
